Several values for one entry are separate records, joined by “and”; a condition that tells them apart may be missing. Equal entries are not always repeated. Out of some 420,000 compounds screened, about 64,000 (15%) were called active. The inconclusive results got no clear call from the source; some entries with a clear call stand among them for comparison. The call rests on the fitted dose curve; in most records, active means well fitted inhibition curve with a large enough effect; inconclusive means small, poorly fitted or top-dose-only effect; inactive means flat fitted curve, though single readings scatter. Where the call is inconclusive, the potency comes from a doubtful curve fit.
experiment: qHTS for Inhibitors of human tyrosyl-DNA phosphodiesterase 1 (TDP1): qHTS in cells in absence of CPT; conditions: DT40 Tdp1-/- hTDP1 cells, no CPT, ATP luminescence, 48 h; activity change, negative = growth inhibition: at 46.2 µM (top of the series) unless noted; further: nearly all actives have a fitted effect of over 55% in size
Outline: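 Growth of hTDP1-complemented DT40 Tdp1-knockout cells is measured by ATP luminescence after at least 48 hr compound exposure at 37 °C, with DMSO substituting for the 20 nM CPT used in the parallel screen.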
On the % scale 0 is the no-effect control and ±100 the full control effect; potency means the concentration at half of the fitted maximal effect; tags describe the fitted curve by direction and shape.

SMILES | Potency | activity change, negative = growth inhibition
CC(C)N(Cc1nc(-c2ccccc2)no1)C(=O)Cc1ccccc1 | inconclusive: 29.1 µM [inhibitor, single point] | –
CSCCC(NC(=O)CCC(=O)OCC(=O)[C@@]1(O)CCC2[C@@H]3CCC4=CC(=O)C=C[C@]4(C)C3[C@@H](O)C[C@@]21C)C(=O)O (some centres undefined) | inactive | –
CN(C)C(=O)COC(=O)c1ccccc1OCC(=O)Nc1ccc(Br)cc1 | inconclusive: 31.6 µM [inhibitor, single point] | –
O=C(Cn1cnc2sc(-c3ccccc3)cc2c1=O)NCCc1ccccc1 | inconclusive: 18.4 µM [inhibitor, single point] | –
CC(=O)NC1C(=O)N(CCN2CCOCC2)c2ccc(Br)cc21 (centres undefined) | inactive | –
O=C(NCCCN1CCOCC1)c1ccc2c(=O)n(-c3ccc(F)c(Cl)c3)c(=S)[nH]c2c1 | inconclusive: 23.1 µM [inhibitor, partial curve, poor fit] | –
COc1cccc(C(c2cccc(OC)c2)c2ccccc2C(=O)O)c1 | inactive | –
CCn1c(=NC(=O)CS(=O)(=O)c2ccc(F)cc2)sc2cccc(OC)c21 | active: 18.4 µM | –
Cc1nc2ccccc2cc1C(=O)NCc1ccco1 | inconclusive: 23.1 µM [inhibitor, single point] | –
Cc1nn(Cc2ccc(C(=O)N3c4ccc(F)cc4CCC3C)o2)c(C)c1Br (centres undefined) | active: 16.4 µM | –
CCOc1cc(/C=N/NC(=O)CCCC(=O)NC2CCCCC2)ccc1O | inactive | –
COc1ccc(C(C)=O)cc1Cn1cnc2c(cnn2C)c1=O | inconclusive: 18.4 µM [inhibitor, single point] | –
O=C(NCCCN1CCN(c2cccc(Cl)c2)CC1)Nc1ccccc1C(F)(F)F | inconclusive: 29.1 µM [inhibitor, single point] | –
Cc1cccn2c(=O)cc(COC(=O)C(C)Oc3ccccc3)nc12 (centres undefined) | inactive | –
CCCNC(=S)N(Cc1cc2cc(C)ccc2n2nnnc12)CC(C)(C)CN(C)C | inconclusive: 16.4 µM [inhibitor, single point] | –
COc1ccc(C(=O)/C=C/c2ccc(O)cc2)c(O)c1C/C=C(\C)CCC=C(C)C | inconclusive: 29.1 µM [inhibitor, single point] | –
COc1cccc(CNC(=O)C2CCN(c3nn4c(=O)cc(C)nc4s3)CC2)c1 | inactive | –
CCN(CC)CCOC(=O)C1(c2ccccc2)CCCC1 | inconclusive: 26.6 µM [inhibitor, partial curve, poor fit] and inconclusive: 25.9 µM [inhibitor, partial curve] | –
COc1ccc(NC(=O)CSc2nnnn2-c2ccc(F)cc2)cc1 | inconclusive: 5.8 µM [inhibitor, partial curve, poor fit] | –
CN=C(Nc1ccccc1)SC1CC(=O)N(c2ccc(C(=O)OC)cc2)C1=O (centres undefined) | – | inconclusive: -30.7% [inhibitor]
O=C(NC1CCCCC1)c1cc(S(=O)(=O)N2CCCCC2)ccc1N1CCOCC1 | inactive | –
O=C1NC(Cc2ccccc2)c2nc3cc(F)c(F)cc3c(=O)n2-c2ncccc21 (centres undefined) | inconclusive: 29.1 µM [inhibitor, single point] | –

SMILES | Potency | activity change, negative = growth inhibition
CC(=O)Oc1ccc2oc(-c3ccccc3)c(C(N)=O)c2c1 | inconclusive: 29.1 µM [inhibitor, single point] | –
CC1=C(C(=O)N(C)C)CC(CC(=O)NCc2cccc3ccccc23)C(=O)N1Cc1ccc(C(C)(C)C)cc1 (centres undefined) | inconclusive: 16.4 µM [inhibitor, single point] | –
COc1ccc(CCNc2ncnc3c2c(C)c(C)n3CCCN(C)C)cc1OC | inconclusive: 29.1 µM [inhibitor, single point] | –
CC1Cc2ccccc2N1C1=CC(=O)CC(C)(C)C1 (centres undefined) | inactive | –
O=C(CSc1cccc2cccnc12)N/N=C/c1cccc(O)c1 | active: 16.4 µM | –
O=C(Nc1cccc(F)c1)N1CCC(n2c(=O)[nH]c3ccccc32)CC1 | inconclusive: 11.6 µM [inhibitor, partial curve] | –
Cc1cc(OCC(=O)OCC(=O)N(C)C2CCS(=O)(=O)C2)ccc1Cl (centres undefined) | inactive | –
CC1CC(C)CN(c2nc(N(C)c3ccccc3)nc(N)c2[N+](=O)[O-])C1 (centres undefined) | active: 13 µM | –
CCOc1ccc(-c2nnc(N3CCOCC3)c3ccccc23)cc1 | inactive | –
CC1(C)Cc2ccccc2C(Nn2cnnc2)=N1 | inactive | –
Cc1cccc(Cn2c(CN3CCN(Cc4ccccc4)CC3)nc3c2c(=O)[nH]c(=O)n3C)c1 | inconclusive: 29.1 µM [inhibitor, single point] | –
N#Cc1cnc(SCC(=O)c2ccccc2)nc1N | inconclusive: 20.6 µM [inhibitor, single point] | –
CN(C)S(=O)(=O)c1ccc(C(=O)NCCSc2ccccc2)cc1 | inconclusive: 20.6 µM [inhibitor, partial curve] | –
CCOc1ccc(S(=O)(=O)NCCC(=O)Nc2ccncc2)cc1 | inactive | –
Cn1cc(CN2CCCC(C(=O)Nc3cccc(-c4cc5ccccc5[nH]4)c3)C2)cn1 (centres undefined) | inconclusive: 29.1 µM [inhibitor, single point] | –
CN(C)c1ccc(NC(=O)CCN2C(=O)c3cccc([N+](=O)[O-])c3C2=O)cc1 | inactive | –
O=C(c1ccc2c(c1)N(Cc1ccc(Cl)cc1)C(=O)c1ccccc1S2=O)N1CCN(c2ccccc2F)CC1 (centres undefined) | active: 20.6 µM | –
Cc1ccc(-n2nc(C)c3c(C)c(CCC(=O)NCCCOC(C)C)c(C)nc32)cc1 | inconclusive: 18.4 µM [inhibitor, single point] | –
Cc1ccc(NC(=O)c2cccs2)cc1NC(=O)c1ccc(F)cc1 | inconclusive: 4.61 µM [inhibitor, single point] | –
CCOCCOC(=O)c1[nH]c2c(c1C)C(=O)CC(c1ccccc1)C2 (centres undefined) | active: 0.92 µM | –
CCOC(=O)C1=C(C)N(c2ccc(OCC)cc2)C(=O)/C1=C\c1ccco1 | inconclusive: 29.1 µM [inhibitor, single point] | –
COc1ccc(C(C)(O)c2nc(-c3ccc(OC)nc3)cs2)cc1 (centres undefined) | inconclusive: 29.1 µM [inhibitor, single point] | –

Source: PubChem BioAssay AID686978 (National Center for Advancing Translational Sciences (NCATS), 2013)
